The source of these data is article PMC4336329 (PLoS ONE, 2015).

Structures are written as SMILES. The whole screen tested about 310,000 compounds, of which about 14,000 (4.5%) showed an effect of 50% or more. Effects have a minus sign here. This is one part of the list.
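Further: peak tail current of the secondary pulse compared with the same well before compound.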

human ether-à-go-go-related gene (hERG) potassium channel, sequence (Q12809 whole entry, looked up): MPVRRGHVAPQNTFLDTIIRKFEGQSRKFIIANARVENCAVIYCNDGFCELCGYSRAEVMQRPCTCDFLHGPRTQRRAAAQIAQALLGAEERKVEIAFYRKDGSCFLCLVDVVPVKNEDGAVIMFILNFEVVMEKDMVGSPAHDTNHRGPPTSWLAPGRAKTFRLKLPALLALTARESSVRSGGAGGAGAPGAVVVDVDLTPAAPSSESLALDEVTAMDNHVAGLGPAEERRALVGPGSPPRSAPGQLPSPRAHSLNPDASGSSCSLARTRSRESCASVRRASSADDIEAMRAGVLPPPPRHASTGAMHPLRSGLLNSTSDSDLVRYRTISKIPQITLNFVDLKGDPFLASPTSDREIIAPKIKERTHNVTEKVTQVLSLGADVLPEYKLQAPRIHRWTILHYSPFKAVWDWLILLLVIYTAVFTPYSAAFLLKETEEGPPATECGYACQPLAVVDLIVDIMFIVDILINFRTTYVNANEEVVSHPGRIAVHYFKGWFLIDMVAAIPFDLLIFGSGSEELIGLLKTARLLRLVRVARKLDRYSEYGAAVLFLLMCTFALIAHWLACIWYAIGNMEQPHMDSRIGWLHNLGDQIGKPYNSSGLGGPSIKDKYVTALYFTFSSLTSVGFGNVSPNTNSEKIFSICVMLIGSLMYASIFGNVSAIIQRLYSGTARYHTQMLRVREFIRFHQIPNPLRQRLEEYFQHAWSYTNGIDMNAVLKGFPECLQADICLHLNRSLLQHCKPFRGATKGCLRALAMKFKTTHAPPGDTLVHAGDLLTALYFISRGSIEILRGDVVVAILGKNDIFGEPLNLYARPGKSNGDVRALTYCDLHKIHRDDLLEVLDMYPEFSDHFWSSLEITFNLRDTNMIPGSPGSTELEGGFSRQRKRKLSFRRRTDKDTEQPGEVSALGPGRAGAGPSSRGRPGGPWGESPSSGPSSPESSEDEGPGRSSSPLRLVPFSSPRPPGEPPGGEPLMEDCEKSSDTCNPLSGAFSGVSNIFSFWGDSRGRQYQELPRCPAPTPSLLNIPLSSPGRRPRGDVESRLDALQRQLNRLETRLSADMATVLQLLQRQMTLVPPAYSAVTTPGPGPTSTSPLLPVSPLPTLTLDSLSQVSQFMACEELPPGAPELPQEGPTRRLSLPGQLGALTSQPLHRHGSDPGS

The assay has as its target human ether-à-go-go-related gene (hERG) potassium channel (human, UniProt Q12809). The experiment in a line: primary screen, population patch clamp on CHO cells stably expressing hERG.
Consider `COc1ccccc1C(=O)N(Cc1ccccc1)c1ccc(C)cc1`, for which the “hERG current change (%, negative = inhibition) at 10uM” value is -2.96%.
`O=C(COC(=O)[C@H](Cc1c[nH]c2ccccc12)NC(=O)c1cccs1)NCc1ccccc1`: the “hERG current change (%, negative = inhibition) at 10uM” value is reported as -1.82%.
Take `CC(C)C[C@H](NC(=O)c1nc[nH]c1C(=O)N(C)Cc1ccccc1)C(=O)OCc1ccccc1`: the “hERG current change (%, negative = inhibition) at 10uM” value is listed as 7.57%.
Consider `COCc1nnc(NC(=O)c2cccs2)s1`, for which the “hERG current change (%, negative = inhibition) at 10uM” value is 18.2%.
For the molecule `O=C(O)C(=O)O.c1ccc(-n2cccc2CNC2CCCCC2)cc1`, the “hERG current change (%, negative = inhibition) at 10uM” value is -8.93%.
To `O=C(/C=C/c1cccs1)c1cc(Cl)ccc1O` belongs 0.301%.
Consider `Cc1cc(C)cc(C(=O)NCC(=O)OCC(=O)Nc2cccnc2Cl)c1`, for which the “hERG current change (%, negative = inhibition) at 10uM” value is -42.6%.
In the case of `CC(=O)CSc1nnc2cc(C)c3ccccc3n12`, the “hERG current change (%, negative = inhibition) at 10uM” value is listed as 23%.
With `CC1CC(C)CN(C(=S)Nc2ccc(SC(F)F)cc2)C1` (stereo not shown), the “hERG current change (%, negative = inhibition) at 10uM” value is given as -51.8%.
Regarding `CC(NS(=O)(=O)c1ccc2c(c1)OCCO2)c1ccccc1` (stereo not shown), the “hERG current change (%, negative = inhibition) at 10uM” value is reported as 8.19%.
As to `CNC(=O)n1cc(C)c(-c2cccs2)n1`, the “hERG current change (%, negative = inhibition) at 10uM” value was found to be 5.15%.
On to `O=C(c1ccc(Cn2c(=O)[nH]c3ccccc3c2=O)cc1)N1CCN(c2ccccc2)CC1`, for which the “hERG current change (%, negative = inhibition) at 10uM” value worked out at 10.8%.
Take `C=CCN(Cc1nc(-c2ccc(OC)cc2)no1)C(=O)c1ccc2c(c1)OCO2`: the “hERG current change (%, negative = inhibition) at 10uM” value was -14.7%.
Regarding `CCOc1ccccc1N1CCN(C2=C(NS(=O)(=O)c3cccs3)C(=O)c3ccccc3C2=O)CC1`, the “hERG current change (%, negative = inhibition) at 10uM” value is on record as -14.1%.
In the case of `CCn1c(SCC(=O)N2CCN(c3ccccc3)CC2)nnc1-c1c[nH]c2ccccc12`, the “hERG current change (%, negative = inhibition) at 10uM” value is recorded as -53.6%.
On to `N/C(=N\S(=O)(=O)c1cccs1)c1ccccc1Cl`, for which the “hERG current change (%, negative = inhibition) at 10uM” value is 14.4%.
As for `O=C(O)C(=O)O.O=[N+]([O-])c1ccc(S(=O)(=O)N2CCN(C3CCN(Cc4ccccc4)CC3)CC2)cc1`, the “hERG current change (%, negative = inhibition) at 10uM” value is reported as -78.2%.
Take `CCOc1cc(CN2CCN(CCc3ccccc3)C(CCO)C2)ccc1OC` (stereo not shown): the “hERG current change (%, negative = inhibition) at 10uM” value is on record as -66.5%.
As to `COc1cccc2sc(N(CCCN(C)C)C(=O)C(c3ccccc3)c3ccccc3)nc12.Cl`, the “hERG current change (%, negative = inhibition) at 10uM” value was -72.7%.
With `N#CCSc1nnc(-c2cnccn2)n1Cc1ccccc1`, the “hERG current change (%, negative = inhibition) at 10uM” value was 17.7%.
Next, `CC(C)(C)c1ccc(C(=O)Nc2ccc(O)c3c(=O)cc(-c4ccccc4Cl)oc23)cc1`: -3.26%.
Turning to `COc1ccc(C2c3ccc(O)cc3Oc3ncn4nc(-c5ccccn5)nc4c32)cc1` (stereo not shown), the “hERG current change (%, negative = inhibition) at 10uM” value stood at 17.9%.
On to `COc1cc(/C=C/c2ccc3cccc(O)c3n2)cc(Cl)c1OC`, for which the “hERG current change (%, negative = inhibition) at 10uM” value stood at 26.1%.
In the case of `COc1cccc(CNC(=O)C2CCCN(S(=O)(=O)c3ccc4c(c3)C(C)(C)C(=O)N4C)C2)c1` (stereo not shown), the “hERG current change (%, negative = inhibition) at 10uM” value came out at 7.81%.
Consider `CN1CCN(C(=O)c2cccc(NS(=O)(=O)c3ccc(Br)cc3)c2)CC1.Cl`, for which the “hERG current change (%, negative = inhibition) at 10uM” value was -12.6%.
`Cn1ncc2c1ncn1nc(CCc3ccccc3)nc21`: the “hERG current change (%, negative = inhibition) at 10uM” value was -4.42%.
For `Cc1ccc(C(=O)NCCCNC(=O)c2cccnc2)cc1`, the “hERG current change (%, negative = inhibition) at 10uM” value is 8.52%.
As for `O=C(O)CCCCN1C(=O)/C(=C\c2ccc(OCc3ccccc3)c(OCc3ccccc3)c2)SC1=S`, the “hERG current change (%, negative = inhibition) at 10uM” value stood at 4.97%.
Take `COCCNC(=O)NC1(C(F)(F)F)Oc2ccc(Cl)cc2O1` (stereo not shown): the “hERG current change (%, negative = inhibition) at 10uM” value is -8.39%.
As for `C/C(=N\NC(=S)NC1CCCCC1)c1ccccc1`, the “hERG current change (%, negative = inhibition) at 10uM” value is listed as 7.18%.
`O=C(NCc1nnc(SCC(=O)N2CCN(c3ccccc3)CC2)o1)c1ccc(F)cc1`: the “hERG current change (%, negative = inhibition) at 10uM” value is -5.96%.
Consider `CCCCNc1c(-c2ccc(SC(C)CC)cc2)nc2ccccn12.O=C(O)C(F)(F)F` (stereo not shown), for which the “hERG current change (%, negative = inhibition) at 10uM” value is -2.61%.
With `O=C(Nc1nccs1)c1cccc(S(=O)(=O)N2CCCC2)c1`, the “hERG current change (%, negative = inhibition) at 10uM” value is -6.01%.
Take `Cc1cc(C(=O)CS(=O)(=O)c2ccccc2)cc(C)c1O`: the “hERG current change (%, negative = inhibition) at 10uM” value was found to be 9.2%.
For the molecule `CCCCSC1(SCCCC)N=C(N)C2(C#N)C(c3ccccc3)NC(C)=C(C)C12C#N` (stereo not shown), the “hERG current change (%, negative = inhibition) at 10uM” value turned out to be 2.2%.
With `Cc1ccccc1-c1nc(-c2cccnc2)no1`, the “hERG current change (%, negative = inhibition) at 10uM” value is -5.49%.
In the case of `CC(=C1C(=O)c2ccccc2C1=O)N1CCc2ccccc2C1`, the “hERG current change (%, negative = inhibition) at 10uM” value is given as -25.6%.
In the case of `Cc1ccc(CN2CCNC(=O)C2CC(=O)N(C)CCc2ccccc2)cc1` (stereo not shown), the “hERG current change (%, negative = inhibition) at 10uM” value is -18%.
As to `N#C/C(=N\Nc1cccc(C(F)(F)F)c1)C(=O)c1ccsc1`, the “hERG current change (%, negative = inhibition) at 10uM” value is 11.3%.
Next, `COc1ccc(CNC(=O)COC(=O)CC2CCCC2)cc1`: 15.5%; `O=C(COc1ccc2ccccc2c1)N1CCN(c2ccccc2)CC1`: 11.7%; `O=C(NNc1c(Cl)cc(Cl)cc1Cl)C1CCC1`: -1.9%.
For the molecule `COCc1[nH]nc2c1C(c1c(F)cccc1Cl)C(C#N)=C(N)O2` (stereo not shown), the “hERG current change (%, negative = inhibition) at 10uM” value is -3.01%.
Next, `CCOC(=O)c1ccc(N2C(=O)CC(N3CCN(C(=O)c4ccco4)CC3)C2=O)cc1` (stereo not shown): -25.8%; `COC(=O)CN1C(=S)N(c2ccc(OC)cc2)C(=O)/C1=C/c1cccs1`: 34%; `CCOc1cc([N+](=O)[O-])cc(/C=N/NC(=O)c2c(-c3ccccc3)noc2C)c1O`: -3.58%.
Take `CCCN(CC1CC1)C(=S)NC(=O)c1ccc(S(=O)(=O)N2CCOCC2)cc1`: the “hERG current change (%, negative = inhibition) at 10uM” value came out at 2.32%.
Consider `CCOc1ccc(C(=O)NCC(=O)OCc2cc(C(C)=O)ccc2OC)cc1`, for which the “hERG current change (%, negative = inhibition) at 10uM” value was -14.5%.
To `O=C(Nc1ccc(O)cc1)c1ccc(C(=O)c2ccccc2)o1` belongs 2.26%; to `CCOc1ccc(CNC(=O)CCC(=O)N2Cc3cccc(OC)c3Oc3ncccc32)cc1`, -44.3%.
For `COc1ccccc1CN(C)C(=O)c1cccc(S(=O)(=O)N2CCCc3ccccc32)c1`, the “hERG current change (%, negative = inhibition) at 10uM” value is on record as -18.8%.
`CCN(CC)C(=S)NCCc1ccccc1`: the “hERG current change (%, negative = inhibition) at 10uM” value was determined as 0.124%.
Consider `CCn1c(=O)cc(OCC(=O)NCCCN2CCCC2=O)c2ccccc21`, for which the “hERG current change (%, negative = inhibition) at 10uM” value was 8.52%.
Next, `CCCN1CCN(CCCNC(=O)CCNC(=O)Cn2ccc3ccccc3c2=O)CC1`: 17.6%; `COc1ccc2cc(C=O)n(C)c2c1`: 5.05%.
